Inconclusive means that the source gave no clear call. Such entries were picked first, then a sample of the others. For part of these data: No potency is given beside an inconclusive call; the fits are too rough. Calls of active or inactive are those of the source. Unless noted, calls come from the whole dose curve; as a rule, active = well fitted curve in the direction sought with a large enough effect; inconclusive = small, poorly fitted or top-dose-only effect, or another doubt; inactive = no such curve, though single readings can be large; an effect the other way counts as inactive or inconclusive.
Experiments:
[1] = AP1 Signaling Pathway (AID 357; active = well fitted curve in either direction with a large enough effect, not every such curve was filed as active; inconclusive = small, poorly fitted or top-dose-only effect, or another doubt;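 note: ME-180 reporter cells stimulated with EGF at its EC50 level; top concentration of the series differs between compounds; % is set by controls: 0 for no effect and ±100 for the full control effect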); details: ME-180 AP-1-bla reporter, EGF-induced, beta-lactamase ratio, 5 h; at 7.69 µM (top of the series) unless noted
Method in brief: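 Cells are seeded overnight, exposed to compound titrations and an EC50 level of EGF for 5 hours at 37 °C, then loaded with CCF4 dye for 2.5 hours. Beta-lactamase activity under the AP-1 element is read as a blue/green ratio.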

[2] = target: Dual specificity protein kinase CLK4 (Homo sapiens) (UniProt Q9HAZ1); assay: qHTS Assay for Inhibitors of CDC-like Kinase 4 (Kinase-Glo Assay) (AID 1770); details: recombinant Clk4, Kinase-Glo ATP depletion luminescence; series mostly up to 66.7 µM; note: nearly all actives have a fitted effect of over 65% in size; note: potency is the fitted concentration of half-maximal effect
Method in brief: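 Luminescent ATP-depletion read-out (Kinase-Glo) after 4.5 h room-temperature reaction of Clk4 (25 nM final) with RS peptide (100 uM) and ATP (1 uM), pH 7.5 Tris buffer with MgCl2 and DTT.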

[3] = target: Dual specificity protein kinase CLK4 (Homo sapiens) (UniProt Q9HAZ1); assay: qHTS Assay for Inhibitors of CDC-like Kinase 4 (ADP-Glo Assay) (AID 1771); details: recombinant CLK4, ADP-Glo luminescence; series mostly up to 80 µM; note: nearly all actives have a fitted effect of over 70% in size; note: potency is the fitted concentration of half-maximal effect
Method in brief: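 25 nM Clk4, 100 uM RS peptide, 1 uM ATP (final); 2 mM MgCl2, 0.5 mM EGTA, 2.5 mM DTT, 0.01% Triton X-100; 1 hr RT. ADP-Glo readout: ATP depletion 45 min, conversion/luciferase 30 min, luminescence.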

[4] = target: Dual specificity protein kinase CLK4 (Homo sapiens) (UniProt Q9HAZ1); assay: qHTS Assay for Inhibitors of CDC-like Kinase 4 (ADP-FP Assay) (AID 1795); details: Transcreener ADP fluorescence polarization; series mostly up to 50 µM; note: potency is the fitted concentration of half-maximal effect;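 note: recombinant human CLK4 phosphorylating RS repeat peptide at 1 µM ATP; nearly all actives have a fitted effect of over 60% in size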
Method in brief: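 Kinase activity was measured as ADP production using Transcreener orange tracer (4 nM) and ADP antibody (1 ug/mL) fluorescence polarization, with ADP calculated from a calibration curve. The 1 h reaction contained 6.25 nM Clk4, 1 uM ATP and 100 uM RS peptide at pH 7.5 with Mg2+.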

[5] = Primary qHTS for small molecule stabilizers of the endoplasmic reticulum resident proteome: Secreted ER Calcium Modulated Protein (SERCaMP) assay (AID 1508630); details: SH-SY5Y GLuc-SERCaMP (Gaussia luciferase released on ER calcium loss) secretion, thapsigargin, luminescence; activity change, negative = inhibition: at 38.4 µM (top of the series) unless noted; note: potency is the fitted concentration of half-maximal effect
Method in brief: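 The SH-SY5Y reporter protocol was run at 3 concentrations up to 38.3 uM (primary) or 11 concentrations (follow-up): 16 h compound, 100 nM thapsigargin for 4 h, then extracellular luciferase luminescence.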

[6] = qHTS Assay for Identification of Small Molecule Agonists for Hypoxia Response Element Signaling Pathway (AID 914; active = well fitted activation curve with a large enough effect in the signal ratio, with a control signal flat, not every such curve was filed as active; inconclusive = small, poorly fitted or top-dose-only effect, or effect the other way, or a change in a side signal; the % refers to the signal ratio; note: top concentration of the series differs between compounds; % of control where 0% means no effect); details: ME-180 HRE-bla reporter, beta-lactamase ratio, CoCl2, 17 h; activation: hits give high values
Method in brief: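 Reporter activity (beta-lactamase, CCF4 460nm/530nm ratio) in HRE-bla ME-180 cells is recorded after 17 h compound exposure with EC50 CoCl2 at 37 degrees Celsius. AC50 values come from titration data.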

[7] = NFAT Signaling Pathway (AID 444; active = well fitted curve in either direction with a large enough effect, not every such curve was filed as active; inconclusive = small, poorly fitted or top-dose-only effect, or another doubt;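 note: carbachol stimulus at about its EC50 of 1 µM final; % is set by controls: 0 for no effect and ±100 for the full control effect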); details: Jurkat NFAT-bla M1, carbachol, beta-lactamase ratio, 5 h; at 7.69 µM (top of the series) unless noted
Method in brief: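 Jurkat cells with NFAT-driven β-lactamase reporter and co-expressed M1 receptor, stimulated with carbachol (final 1 uM, ~EC50), compound titration, 5 h at 37 °C. CCF4 loaded 1 h at RT; 460/530 nm ratio gave %activity and AC50.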

[8] = Stat Signaling Pathway (AID 446; active = well fitted curve in either direction with a large enough effect, not every such curve was filed as active; inconclusive = small, poorly fitted or top-dose-only effect, or another doubt;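 note: ME-180 cervical cancer cells given 40 pM IL-6 alongside compound; SIE-controlled beta-lactamase reporter measured as 460/530 nm FRET emission ratio; top concentration of the series differs between compounds; % is set by controls: 0 for no effect and ±100 for the full control effect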); details: ME-180 (cervical carcinoma) SIE beta-lactamase reporter, IL-6 stimulated, 5 h; at 7.69 µM (top of the series) unless noted
Method in brief: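 Emission at 460 and 530 nm (excitation 405 nm) reports SIE-controlled beta-lactamase in ME-180 cells. Cells received compound with 40 pM IL-6 for 5 hrs at 37 C; data scaled between 300 pM IL-6 and 125 nM JAK-inhibitor controls.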

[9] = target: Ubiquitin carboxyl-terminal hydrolase 1 (Homo sapiens) (UniProt O94782); assay: Inhibitors of USP1/UAF1: Pilot qHTS (AID 504865); details: purified USP1/UAF1, Ub-rhodamine cleavage fluorescence; series mostly up to 54.9 µM; note: potency is the fitted concentration of half-maximal effect;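 note: rhodamine fluorescence freed from ubiquitin-rhodamine substrate followed over time; nearly all actives have a fitted effect of over 35% in size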
Method in brief: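 Deubiquitinase activity followed as kinetic rhodamine fluorescence release from 150 nM Ub-Rho. 1 nM USP1/UAF1 with compound, after 15 min room-temperature preincubation, in HEPES pH 7.8 buffer containing TCEP, EDTA, BSA and Tween-20.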

[10] = target: Estrogen receptor (Homo sapiens) (UniProt P03372); assay: qHTS assay for small molecule antagonists of estrogen receptor alpha signaling (AID 588513; active = well fitted curve in the direction sought with a large enough effect in the signal ratio, with a control signal flat, not every such curve was filed as active; inconclusive = small, poorly fitted or top-dose-only effect, or effect the other way, or a change in a side signal; inactive = no such curve, though single readings can be large or run the other way; the % refers to the signal ratio; note: % is set by controls: 0 for no effect and ±100 for the full control effect); details: ER-alpha-UAS-bla HEK293, beta-lactamase ratio, antagonist mode; activity, negative = inhibition: at 76.9 µM (top of the series)
Method in brief: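 Antagonist mode: inhibition of 0.5 nM 17-beta-estradiol-driven beta-lactamase reporter in HEK 293 ER-alpha-UAS-bla cells, 18 h at 37C, CCF4 readout after 2 h at RT. Normalised to estradiol and DMSO; titration fitted to Hill.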

[11] = target: Glucocorticoid receptor (Homo sapiens) (UniProt P04150); assay: qHTS assay for small molecule antagonists of glucocorticoid receptor signaling (AID 588533; active = well fitted inhibition curve with a large enough effect in the signal ratio, with a control signal flat, not every such curve was filed as active; inconclusive = small, poorly fitted or top-dose-only effect, or effect the other way, or a change in a side signal; the % refers to the signal ratio); details: HeLa MMTV-bla, GRE beta-lactamase ratio, antagonist mode, 18 h; activity change, negative = inhibition: at 76.8 µM (top of the series)
[12] = target: Peroxisome proliferator-activated receptor gamma (Homo sapiens) (UniProt P37231); assay: qHTS assay for small molecule agonists of peroxisome proliferator-activated receptor gamma signaling (AID 588536; active = well fitted curve in the direction sought with a large enough effect in the signal ratio, with a control signal flat, not every such curve was filed as active; inconclusive = small, poorly fitted or top-dose-only effect, or effect the other way, or a change in a side signal; inactive = no such curve, though single readings can be large or run the other way; the % refers to the signal ratio;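 note: 0% = DMSO basal wells and 100% = rosiglitazone at 2 µM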); details: HEK293 PPARg-UAS-bla, beta-lactamase ratio, 16 h; activation: at 76.7 µM (top of the series), percent of rosiglitazone response, DMSO as zero
Method in brief: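 Beta-lactamase reporter read-out: CCF4 fluorescence (ex 405, em 460/530 nm) after 2 h at RT. HEK293 GeneBLAzer cells were treated for 16 h at 37 C. Hill fits gave EC50 and efficacy versus 2 uM rosiglitazone (100%) and DMSO (0%).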

[13] = target: Retinoic acid receptor RXR-alpha (Homo sapiens) (UniProt P19793); assay: qHTS assay for small molecule agonists of retinoid X receptor alpha signaling (AID 588544; calls by dose curve;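 note: 0% = DMSO basal wells and 100% = reference agonist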); details: HEK293T RXRa-UAS-bla, beta-lactamase reporter, 18 h; activation: at 76.7 µM (top of the series)
[14] = qHTS assay for cell viability of HEK293 cells (AID 743288); details: ATP luminescence (CellTiter-Glo), 18 h; max response: hits give low values; note: % is set by controls: 0 for no effect and ±100 for the full control effect; nearly all actives have a fitted effect of over 50% in size
Method in brief: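 Readout is luciferase-coupled ATP content (CellTiter-Glo luminescence, 30 min room temperature) as a measure of metabolically competent cells. Parental HEK293 cells were plated 5 h or more before compound addition, then treated 18 h at 37 C.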

[15] = NCATS anti-infectives library activity on the primary C. elegans qHTS viability assay (AID 1745855; calls by dose curve; note: potency is the fitted concentration of half-maximal effect); details: C. elegans worm area imaging, day 7; series mostly up to 41.8 µM
Method in brief: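 Titration-based screen in worms: eggs hatched overnight in M9, L1 larvae fed TOP10 capsules in S medium with compound, incubated 21 °C for 7 days; fluorescent objects gated by size and intensity at days 0, 3 and 7.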

[16] = target: 3',5'-cyclic-AMP phosphodiesterase 4B (Homo sapiens) (UniProt Q07343); assay: qHTS Assay for Inhibitors of PDE-IV (AID 607; active = well fitted activation curve with a large enough effect in the main read-out, with a control signal flat, not every such curve was filed as active; inconclusive = small, poorly fitted or top-dose-only effect, or effect the other way, or a change in a side signal; note: potency is the fitted concentration of half-maximal effect); details: HEK293 ACTOne CNG channel cells, membrane potential fluorescence; activation (PDE inhibition): at 22.9 µM (top of the series)
Method in brief: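 The readout is membrane depolarisation from a cAMP-sensing CNG channel, detected with a potential dye at ex 535/em 590. Cells were HEK293-derived (endogenous PDE-IV) at 1000 cells/well, titrated up to 22.9 uM final.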
Tags give direction and shape of the fitted curve.

UniProt Q9HAZ1, sequence (Q9HAZ1 whole entry, looked up): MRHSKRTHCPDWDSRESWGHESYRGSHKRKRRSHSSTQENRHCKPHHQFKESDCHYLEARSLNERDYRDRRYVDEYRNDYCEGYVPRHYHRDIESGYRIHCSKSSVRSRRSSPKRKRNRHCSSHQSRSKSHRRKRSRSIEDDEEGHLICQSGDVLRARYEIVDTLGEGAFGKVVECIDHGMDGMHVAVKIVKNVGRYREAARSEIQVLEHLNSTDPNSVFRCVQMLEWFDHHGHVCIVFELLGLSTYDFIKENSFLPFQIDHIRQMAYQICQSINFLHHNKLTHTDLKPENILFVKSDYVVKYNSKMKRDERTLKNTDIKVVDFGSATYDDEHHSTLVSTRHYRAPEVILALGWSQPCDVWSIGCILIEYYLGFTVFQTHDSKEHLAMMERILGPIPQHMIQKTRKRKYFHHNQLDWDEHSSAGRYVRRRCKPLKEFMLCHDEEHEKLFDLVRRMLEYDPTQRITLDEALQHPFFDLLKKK
UniProt O94782, sequence (O94782 whole entry, looked up): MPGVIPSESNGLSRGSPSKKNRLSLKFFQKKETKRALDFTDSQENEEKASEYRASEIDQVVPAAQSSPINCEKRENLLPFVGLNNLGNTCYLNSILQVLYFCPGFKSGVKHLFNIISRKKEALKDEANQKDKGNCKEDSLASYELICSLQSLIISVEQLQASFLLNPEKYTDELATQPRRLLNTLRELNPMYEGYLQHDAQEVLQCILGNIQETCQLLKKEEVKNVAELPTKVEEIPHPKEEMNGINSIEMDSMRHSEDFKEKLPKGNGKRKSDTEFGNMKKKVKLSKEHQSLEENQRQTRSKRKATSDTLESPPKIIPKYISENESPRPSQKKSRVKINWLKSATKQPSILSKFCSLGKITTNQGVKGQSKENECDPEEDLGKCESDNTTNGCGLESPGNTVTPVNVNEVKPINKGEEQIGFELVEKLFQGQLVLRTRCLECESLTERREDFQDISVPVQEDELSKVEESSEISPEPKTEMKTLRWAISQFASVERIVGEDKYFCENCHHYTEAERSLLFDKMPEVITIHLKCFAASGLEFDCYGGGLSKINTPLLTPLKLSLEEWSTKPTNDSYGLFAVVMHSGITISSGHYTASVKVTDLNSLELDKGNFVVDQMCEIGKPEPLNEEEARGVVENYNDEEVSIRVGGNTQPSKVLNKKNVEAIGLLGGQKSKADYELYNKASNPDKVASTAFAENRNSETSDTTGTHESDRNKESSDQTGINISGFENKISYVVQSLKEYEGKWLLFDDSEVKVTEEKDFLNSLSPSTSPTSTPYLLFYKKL
UniProt P19793, sequence (P19793 whole entry, looked up): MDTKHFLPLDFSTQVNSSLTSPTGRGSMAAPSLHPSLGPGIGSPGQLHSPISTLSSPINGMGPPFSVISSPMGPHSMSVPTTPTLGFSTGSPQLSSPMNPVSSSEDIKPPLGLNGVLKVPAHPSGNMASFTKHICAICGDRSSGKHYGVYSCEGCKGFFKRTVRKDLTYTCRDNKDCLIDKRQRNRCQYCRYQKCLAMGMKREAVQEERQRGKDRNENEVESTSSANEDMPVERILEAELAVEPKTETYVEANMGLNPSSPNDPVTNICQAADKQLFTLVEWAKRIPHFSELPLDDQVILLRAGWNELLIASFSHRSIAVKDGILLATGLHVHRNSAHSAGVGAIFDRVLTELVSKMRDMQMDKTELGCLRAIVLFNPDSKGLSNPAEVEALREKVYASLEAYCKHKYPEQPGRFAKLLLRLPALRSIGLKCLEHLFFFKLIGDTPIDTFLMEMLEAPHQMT
UniProt P03372, sequence (P03372 whole entry, looked up): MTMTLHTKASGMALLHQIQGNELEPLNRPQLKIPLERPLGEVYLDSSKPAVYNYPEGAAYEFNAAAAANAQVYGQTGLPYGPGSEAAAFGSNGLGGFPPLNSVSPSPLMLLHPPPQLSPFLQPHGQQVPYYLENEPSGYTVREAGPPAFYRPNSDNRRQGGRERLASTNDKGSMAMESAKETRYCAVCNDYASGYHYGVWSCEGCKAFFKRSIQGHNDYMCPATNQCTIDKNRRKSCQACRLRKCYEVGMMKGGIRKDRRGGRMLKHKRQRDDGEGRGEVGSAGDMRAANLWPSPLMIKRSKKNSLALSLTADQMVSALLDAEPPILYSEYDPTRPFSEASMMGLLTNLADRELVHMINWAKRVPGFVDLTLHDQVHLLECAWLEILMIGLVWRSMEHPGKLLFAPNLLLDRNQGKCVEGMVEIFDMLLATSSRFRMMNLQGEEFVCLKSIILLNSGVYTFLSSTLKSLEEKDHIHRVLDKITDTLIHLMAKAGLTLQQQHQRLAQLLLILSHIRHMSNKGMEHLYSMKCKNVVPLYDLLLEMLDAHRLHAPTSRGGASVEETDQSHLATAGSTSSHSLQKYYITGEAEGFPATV
UniProt Q07343, sequence (Q07343 whole entry, looked up): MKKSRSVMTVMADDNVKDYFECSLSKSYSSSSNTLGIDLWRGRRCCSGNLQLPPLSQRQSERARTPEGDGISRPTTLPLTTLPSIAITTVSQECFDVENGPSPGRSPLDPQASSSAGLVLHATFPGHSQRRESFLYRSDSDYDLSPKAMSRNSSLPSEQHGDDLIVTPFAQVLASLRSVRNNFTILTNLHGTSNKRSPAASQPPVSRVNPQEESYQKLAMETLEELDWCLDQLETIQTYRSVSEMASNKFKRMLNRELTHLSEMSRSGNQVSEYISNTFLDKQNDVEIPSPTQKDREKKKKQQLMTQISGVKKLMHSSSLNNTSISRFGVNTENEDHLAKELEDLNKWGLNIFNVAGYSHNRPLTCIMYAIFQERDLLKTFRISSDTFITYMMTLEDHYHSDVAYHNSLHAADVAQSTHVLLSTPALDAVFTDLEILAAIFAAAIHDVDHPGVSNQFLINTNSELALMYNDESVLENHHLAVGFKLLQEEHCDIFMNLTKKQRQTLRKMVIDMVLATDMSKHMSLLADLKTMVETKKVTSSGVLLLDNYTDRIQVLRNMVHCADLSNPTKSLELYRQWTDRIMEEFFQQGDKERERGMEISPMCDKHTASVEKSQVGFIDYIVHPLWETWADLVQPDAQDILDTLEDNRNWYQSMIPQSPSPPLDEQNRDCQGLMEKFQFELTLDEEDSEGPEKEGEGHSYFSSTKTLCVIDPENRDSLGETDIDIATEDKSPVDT

For `COc1cccc(Nc2ncc3nc(-c4ccc(Cl)cc4)c(=O)n(C4CC4)c3n2)c1`, the activity change, negative = inhibition [1] was inconclusive: -21.2% [inhibitor], the Potency [2] was “inactive” and the Potency [3] was “inactive”. The Potency [4] was “inactive” and the Potency [5] was “inactive”.

For `Cc1cccc(CNc2cc(-c3c(C)noc3C)ncn2)c1`, the Potency [2] was active: 15.8 µM and the Potency [5] was “inactive”.

With `CN(C)C(=O)c1ccc(-c2ccc3ncnc(Nc4ccc(F)cc4)c3c2)cc1` the activity change, negative = inhibition [1] was inconclusive: -92.5% [inhibitor], the activation [6] was inactive: 7.84% and the Potency [2] was inconclusive [falling, single point]. The Potency [3] was inconclusive [falling, single point] and the Potency [5] was inconclusive [inhibitor, single point].

In the case of `COc1ccc2[nH]cc(CCNc3nc(-c4c(C)noc4C)nc4ccccc34)c2c1`, the activity change, negative = inhibition [7] was inconclusive: -96.3% [inhibitor], the activity, negative = inhibition [8] was inconclusive: -35.1% [inhibitor] and the activation [6] was inconclusive: -25.8%. The Potency [2] was inconclusive [falling, single point], the Potency [3] was inconclusive [falling, partial curve] and the Potency [9] was “inactive”. The Potency [5] was inconclusive [inhibitor, single point].

In the case of `O=C(O[C@@H]1Cc2c(O)cc(O)cc2O[C@@H]1c1cc(O)c(O)c(O)c1)c1cc(O)c(O)c(O)c1`, the activity, negative = inhibition [10] was inconclusive: -48%, the activity change, negative = inhibition [11] was inconclusive: -38.1% and the activation [12] was inconclusive: -12.7%. The Potency [13] was “inactive”, the max response [14] was inactive: -1.55% and the Potency [5] was inconclusive [inhibitor, partial curve, poor fit]. For the same compound, the Potency [15] was active: 0.163 µM.

With `Clc1ccccc1-c1nc(Nc2ccncc2)c2ccccc2n1` the activity change, negative = inhibition [7] was inactive: 8.97%, the Potency [16] was inconclusive [activator, single point] and the Potency [2] was active: 7.94 µM. For the same compound, the Potency [3] was active: 7.94 µM, the Potency [4] was active: 10 µM and the Potency [9] was inconclusive [inhibitor, single point]. For the same compound, the Potency [5] was inconclusive [inhibitor, single point].
